Some of the results follow. These are noisy estimates, calculated here from bound and input reads.

This test has as its target T1, Pho4 (S. cerevisiae) (UniProt P07270).
T1 sequence: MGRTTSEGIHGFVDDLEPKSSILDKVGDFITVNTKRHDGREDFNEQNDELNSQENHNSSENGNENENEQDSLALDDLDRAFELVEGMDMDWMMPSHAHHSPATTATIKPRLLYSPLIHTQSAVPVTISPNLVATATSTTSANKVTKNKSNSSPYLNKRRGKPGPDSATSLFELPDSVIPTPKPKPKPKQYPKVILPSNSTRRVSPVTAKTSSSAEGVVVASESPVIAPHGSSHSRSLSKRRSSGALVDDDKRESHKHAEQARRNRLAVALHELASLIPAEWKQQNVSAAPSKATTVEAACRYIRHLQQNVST
The test is described as follows: relative binding free energy (BET-seq); higher = weaker binding. The following applies: reference: library average.
On to CATGACACGTGTTTGT, for which the “relative binding free energy” value came to 0 kcal/mol.
With GCGAACACGTGGTGGG, the “relative binding free energy” value was -0.1 kcal/mol.
The value for TTGTCCACGTGAGGTA was 0.15 kcal/mol; that for GTTGGCACGTGAGTGG was 0.18 kcal/mol; that for TGGATCACGTGGGTCA was -0.03 kcal/mol.
The result for GTGGTCACGTGACGGC reads 0.24 kcal/mol; that for AATTACACGTGGGGTT, -0.03 kcal/mol; that for GGTTACACGTGATGTC, 0.39 kcal/mol.
The result for TGGCTCACGTGTTACG reads 0.33 kcal/mol; that for TGTATCACGTGAGTGC, 0.29 kcal/mol; that for TTGTTCACGTGCTTGG, 0.26 kcal/mol.
Turning to GTTTGCACGTGCTAGG, the “relative binding free energy” value is -0.03 kcal/mol.
Turning to GGTGACACGTGAGTTT, the “relative binding free energy” value came to 0.36 kcal/mol.
As to TGGCTCACGTGGATGG, the “relative binding free energy” value was 0.25 kcal/mol.
With TTGATCACGTGCATGT, the “relative binding free energy” value stood at 0.18 kcal/mol.
The result for TGTGACACGTGCATGT reads -0.06 kcal/mol; that for TTATGCACGTGGGGTA, -0.25 kcal/mol; that for ATCATCACGTGGTAGG, 0.05 kcal/mol.
As for GGCGGCACGTGTAACG, the “relative binding free energy” value was 0.13 kcal/mol.
For the sequence TATACCACGTGAGTGG, the “relative binding free energy” value was 0.2 kcal/mol.
The result for GATTGCACGTGTGTGA reads 0.14 kcal/mol; that for TAAATCACGTGGGGGC, 0.16 kcal/mol.
As to AAGAGCACGTGGCGGG, the “relative binding free energy” value was -0.24 kcal/mol.
For the sequence TCGGGCACGTGTGTTT, the “relative binding free energy” value was -0.01 kcal/mol.
In the case of GGTGTCACGTGCGAAT, the “relative binding free energy” value was found to be 0.09 kcal/mol.
With AGGGACACGTGAAGGA, the “relative binding free energy” value came to 0.27 kcal/mol.
As for TGAGTCACGTGCGTTT, the “relative binding free energy” value stood at 0.15 kcal/mol.
In the case of TATGGCACGTGAGTTT, the “relative binding free energy” value was determined as 0.23 kcal/mol.
The value for GGATTCACGTGGAGTT was 0.37 kcal/mol; that for GTGCGCACGTGGACGT was -0.07 kcal/mol.
The result for TGTGACACGTGAGCGG reads 0.13 kcal/mol; that for ACGGTCACGTGGTTCG, 0.06 kcal/mol; that for GTCATCACGTGTTTAT, 0.27 kcal/mol.
For TGGGGCACGTGAGAAA, the “relative binding free energy” value was 0.21 kcal/mol.
The value for TAGCGCACGTGTTATT was 0.08 kcal/mol; that for TGGGCCACGTGTTTGA was -0.05 kcal/mol; that for GGGGTCACGTGAGAGA was 0.46 kcal/mol.
The result for AGTGTCACGTGGAGGC reads 0.03 kcal/mol.
As for TAGAACACGTGGGGGG, the “relative binding free energy” value is -0.15 kcal/mol.
The value for GGTCGCACGTGTTAGG was 0.08 kcal/mol.
The value for CTGGGCACGTGCAAGG was -0.14 kcal/mol; that for GTACTCACGTGTGGCG was 0.2 kcal/mol; that for TGCGGCACGTGCGGCG was -0.14 kcal/mol.
The result for CACTGCACGTGGGGGC reads -0.14 kcal/mol; that for AACTTCACGTGTGTAT, 0.4 kcal/mol.
For TGGTACACGTGGTGTG, the “relative binding free energy” value came to 0.05 kcal/mol.
GGGGACACGTGCTGGT: the “relative binding free energy” value was 0.02 kcal/mol.
The value for TTAGCCACGTGGTTGT was -0.05 kcal/mol; that for ACTATCACGTGATTTT was 0.34 kcal/mol.
Take TGTTACACGTGACTTA: the “relative binding free energy” value turned out to be 0.15 kcal/mol.
The result for ATAGACACGTGGTCGG reads -0.23 kcal/mol.
As for AGTAACACGTGTGGCA, the “relative binding free energy” value is 0.16 kcal/mol.
For the sequence TGGCTCACGTGTAGAA, the “relative binding free energy” value came out at 0.28 kcal/mol.
The result for ATTGTCACGTGGACGT reads 0.01 kcal/mol; that for GTTGGCACGTGGCTAT, -0.1 kcal/mol.
For the sequence TAACTCACGTGGGGGC, the “relative binding free energy” value came out at 0.19 kcal/mol.
AGGTTCACGTGGTCGC: the “relative binding free energy” value worked out at 0.27 kcal/mol.
ATTGTCACGTGTCGGT: the “relative binding free energy” value is 0.15 kcal/mol.
For the sequence ATTGTCACGTGCGGCA, the “relative binding free energy” value came to 0.06 kcal/mol.
The value for GTCTTCACGTGTGCTG was 0.28 kcal/mol; that for GTTGGCACGTGCCGGT was -0.17 kcal/mol; that for GTTCCCACGTGGAGGG was 0.03 kcal/mol.
Turning to GGATCCACGTGTGGTG, the “relative binding free energy” value was 0.15 kcal/mol.
The value for AGTTACACGTGGTGCG was -0.04 kcal/mol; that for AGTTGCACGTGTGGAT was 0.05 kcal/mol; that for TAGAGCACGTGATATG was 0.02 kcal/mol.
As for GTGATCACGTGTGTAC, the “relative binding free energy” value was 0.17 kcal/mol.
The value for ACTGGCACGTGTGGGT was -0.08 kcal/mol; that for TTTGACACGTGATGTC was 0.16 kcal/mol; that for GAAGTCACGTGCATGT was 0.19 kcal/mol.
The result for GTTTGCACGTGCTGAT reads 0 kcal/mol.
As to CGGGGCACGTGAAGAG, the “relative binding free energy” value is 0.03 kcal/mol.
The result for CTGTTCACGTGGGGGG reads 0.18 kcal/mol.

Values taken from the BET-seq Pho4 binding data (Le et al. 2018).
